# Test results: the supplement of paper PMC3334620
# Over roughly 33,000 sequences, “E-score (-0.5 to 0.5)” has its median near -0.036; the highest 2% begin near 0.37. The list shows a part of the results.
# Target: T1, Yer064c (UniProt P40041)
# T1 sequence: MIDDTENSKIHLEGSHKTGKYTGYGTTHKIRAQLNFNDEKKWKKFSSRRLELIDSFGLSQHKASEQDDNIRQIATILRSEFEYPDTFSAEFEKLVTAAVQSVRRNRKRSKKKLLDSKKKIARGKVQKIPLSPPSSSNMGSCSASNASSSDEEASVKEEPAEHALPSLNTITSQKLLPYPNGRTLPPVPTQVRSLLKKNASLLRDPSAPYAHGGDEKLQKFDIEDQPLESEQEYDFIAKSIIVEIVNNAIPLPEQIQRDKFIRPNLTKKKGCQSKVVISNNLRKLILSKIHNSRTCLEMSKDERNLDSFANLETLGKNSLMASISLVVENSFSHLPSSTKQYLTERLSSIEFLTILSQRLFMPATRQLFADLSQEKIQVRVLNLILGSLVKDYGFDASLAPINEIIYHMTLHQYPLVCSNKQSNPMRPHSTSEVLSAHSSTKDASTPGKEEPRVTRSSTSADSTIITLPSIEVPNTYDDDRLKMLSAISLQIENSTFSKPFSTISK
# Assay: PBM E-score (8-mer binding enrichment) (E-score (-0.5 to 0.5)); higher = stronger / more preferred TF binding; most listed sequences are background and not binding sites
# Conditions: protein concentration: 200 nM; construct: GST-full length
# Method in brief: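 Yeast transcription factors carrying a GST tag, as full-length proteins or DNA-binding domains, were produced by PURExpress in vitro transcription/translation. About 100-200 nM protein was applied to universal all-10-mer Agilent arrays, double-stranded by primer extension on fresh or once-stripped slides. Bound protein was detected with fluorescent anti-GST, and scans were normalised with masliner. The Universal PBM Analysis Suite gave each ungapped eight-base word, pooled with its reverse complement, an E-score, a modified Wilcoxon-Mann-Whitney statistic.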
row,Sequence,PBM E-score
1,CCCTGCCC,-0.272
2,CAAGCCGC,-0.258
3,ACTTTGAG,0.261
4,AACGATCC,-0.136
5,AGTAAATG,0.108
6,ACGGTACA,-0.106
7,CAGTCCTC,0.14
8,ATCCCGTC,-0.193
9,AATGGTCG,-0.147
10,AAGGGGGT,-0.375
11,TCATGAGA,0.288
12,CATGACGA,0.0513
13,CAAAGGAG,-0.0916
14,AAACGTGT,0.0909
15,ATAAAGAG,0.00873
16,GACGGCCA,-0.257
17,GCGCCGTA,-0.144
18,CACTGATG,-0.0721
19,ATAAGTCA,0.438
20,ACTTATAA,0.203
21,TCTGAGAA,0.186
22,CAAGCCCG,-0.274
23,ATCGCGAG,0.102
24,AGTAGCAG,0.0455
25,GATTGTAC,-0.113

row,Sequence,PBM E-score
1,CCAATACA,-0.0917
2,GAAGTTAC,0.0811
3,ATCATTCG,0.205
4,TACCAGCA,-0.0213
5,CACCATAA,0.157
6,GGGAGCAC,-0.227
7,GTATTTTA,0.0309
8,GTCTAGGA,0.0679
9,ACCTGTGA,0.14
10,AGGTGTGG,-0.184
11,AGATGGCG,0.00785
12,AGAGGCCA,-0.217
13,GACTCCTC,0.419
14,AGTGCGAG,0.133
15,CCGGGATC,0.0126
16,TCGTCTAA,0.136
17,ATCGTGGG,0.00635
18,AGCCCGAT,-0.0209
19,TGTCCCAA,-0.0394
20,CGTATCTC,-0.023
21,ATAGTCTG,0.177
22,AGCGGTAA,-0.0162
23,ACTATACG,0.297
24,AGTTAGCA,-0.0881
25,ATAGGCAC,-0.342

row,Sequence,PBM E-score
1,ACAATAGG,-0.0629
2,ACCAGAGG,-0.0739
3,AATGCATA,-0.108
4,AATAAAGA,0.245
5,CACAGCCC,-0.152
6,GTGAAGGA,0.167
7,CAAACCGA,0.0519
8,ATGAACAC,0.122
9,ACGAAAAT,0.0992
10,GCAAAGAA,0.128
11,AAAAATTT,0.169
12,AGGGCAAG,-0.21
13,ATACGATG,-0.0122
14,AACAGGGG,-0.168
15,GCTTCGCA,-0.0264
16,GAGCGAGC,-0.121
17,ACGTATGG,-0.127
18,ACTGTCTA,0.0798
19,ACTTCAAG,0.278
20,ACTCTCAG,0.125
21,GACAAGCC,-0.149
22,ACCCTGCT,-0.137
23,CGTCGACA,-0.125
24,CATACAAG,-0.0146
25,CCGGAAAC,-0.0836

row,Sequence,PBM E-score
1,GGTCAGAA,-0.00031
2,GGAATTAA,0.105
3,CTCCGAAC,-0.156
4,ATGTGTTG,0.147
5,CCATGAGC,0.138
6,AACCCGCA,-0.117
7,AGGCTTGG,-0.19
8,GAGTCGAC,0.366
9,AGAAAGTC,0.233
10,ATAAATCG,-0.0657
11,ACATAGTC,0.386
12,GGTTGCTA,-0.155
13,ACCTGTGC,-0.145
14,GTCTTCGA,0.174
15,CGAGTGAG,0.181
16,AAGAGTGA,0.232
17,TCTCCAGA,-0.0464
18,AGAACACT,-0.127
19,GCGTCATA,0.0743
20,CTACCAAA,0.11
21,GACAGGGC,-0.409
22,ATAGCGAG,-0.0166
23,GACTGGGA,0.152
24,CTCGTCGC,-0.15
25,AGGTCAAA,0.0677

row,Sequence,PBM E-score
1,ACTCAGCA,0.2
2,CTCCCAAC,-0.141
3,GTCGGATA,0.0569
4,ACTATATC,0.132
5,CGAGGCCA,-0.296
6,ATGGAGAG,-0.0455
7,CATAGCTA,-0.0202
8,AATCTCCT,-0.0556
9,AGGCGACG,-0.346
10,GGGGACCC,-0.181
11,CCCGTGAC,0.261
12,TCAGTCAA,0.348
13,GATTGCGC,0.172
14,GGCGACAA,-0.153
15,ACAGCCAA,-0.125
16,CGCGGAAC,-0.0379
17,CAGGGCGC,-0.0913
18,AGTGTAAG,0.0105
19,CCCTAAGG,-0.169
20,ACAAGGGC,-0.342
21,AGCGGAGA,-0.0941
22,ATTTTGGC,-0.0748
23,ACAGGCCA,-0.401
24,ACTGGTTA,0.0655
25,ACTTTAAC,-0.0315

row,Sequence,PBM E-score
1,CGTCAATC,0.17
2,CAGTTGTA,0.0649
3,ATATCCCA,-0.0842
4,AGAAGTAG,-0.144
5,ACTCAAGG,0.29
6,TACCCCGA,-0.0258
7,GTACAAAA,0.192
8,CAACGTTC,-0.198
9,ATTTCACC,0.00375
10,CTTTCCTA,0.0796
11,AGGTTGGA,-0.114
12,CTGTTGAA,0.125
13,ATCGTGTG,0.0756
14,CCGTTGAC,0.118
15,ACCGTCTC,-0.0574
16,ACACCTAC,-0.0818
17,ACCGACCA,-0.104
18,ATCAAGGA,0.126
19,AAAGATCA,0.137
20,CCTTTCCC,-0.198
21,ATGTAAAA,-0.0296
22,ACGATTGG,-0.0358
23,CCATCTCG,-0.0477
24,CTGGTGTA,-0.14
25,AGGGAGCG,-0.142

row,Sequence,PBM E-score
1,ATGCCTTC,-0.366
2,AGCGGTTA,0.0202
3,CATACCGG,0.00278
4,ATATTCAT,0.0747
5,AAAATCAG,0.15
6,CTCTTATC,0.137
7,CTTATCAA,0.132
8,ATGGATTG,0.19
9,CAAGGTAA,-0.036
10,AGTACTAC,0.173
11,GCTCTACA,-0.134
12,GGCTGGCA,-0.301
13,AGAGAAGC,-0.0756
14,AACCATCA,0.226
15,ATTCATAC,0.278
16,ATGAGTGC,0.226
17,ATGCAAAT,-0.0663
18,CTAAAAAA,0.163
19,ACAACAGG,-0.041
20,GATTTTAA,0.00314
21,CTGCACAG,-0.0498
22,AGTTTTGC,0.0632
